Data on 43 compounds can be found in ChEMBL document CHEMBL4888484, “Replenishing the malaria drug discovery pipeline: Screening and hit evaluation of the MMV Hit Generation Library 1 (HGL1) against asexual blood stage Plasmodium falciparum ,using a nano luciferase reporter read-out” (2022).

About 540 (0.36%) of roughly 150,000 compounds showed an effect of 50% or more. The list shows a part of the results.

This assay has as its system Plasmodium falciparum. Put plainly: Primary screen in NF54 nanoGlo assay, in single point, at 2uM, 72h; a lower Z score goes with more inhibition. Format: functional, Erythrocyte. The conditions noted are these: timepoint 72 hour.
For `CCN1CCCN(CC(=O)NC2CCCCCCC2)CC1`, the “% Inhibition” value is listed as -1% and the Z score worked out at 0.11.

In the case of `N#Cc1cc(NCc2ccc3c(c2)OCCO3)ccc1Cl`, the “% Inhibition” value is reported as -16% and the Z score worked out at 1.66.

For `C[C@@H](Cn1ncc2ccccc2c1=O)NS(=O)(=O)c1ccc2c(c1)CCCC2`, the “% Inhibition” value is given as -5% and the Z score is 0.6.

As for `CCCN1C[C@@H](n2cnc3cccnc3c2=O)CC1=O`, the “% Inhibition” value is recorded as -15% and the Z score came to 1.89.

On to `C[C@]1(Cc2ccc3c(c2)OCO3)CCCN(Cc2ccncc2)C1`, for which the “% Inhibition” value is recorded as -15% and the Z score stood at 1.56.

For the compound `c1cncc(-c2noc(C3CN(Cc4ccco4)C3)n2)c1`, the “% Inhibition” value was -2% and the Z score is 0.34.

As for `CC(=O)N1CC(NC(=O)Cc2c[nH]c3cc(Cl)ccc23)C1`, the “% Inhibition” value is recorded as -41% and the Z score is recorded as 4.84.

Turning to `Cc1noc(C(C)(C)NC(=O)Cc2cc(C)on2)n1`, the “% Inhibition” value was determined as 2% and the Z score was -0.22.

Consider `Cc1c[nH]c(CN(Cc2ccc3c(c2)OCO3)C2CC2)c(C)c1=O`, for which the “% Inhibition” value was -2% and the Z score stood at 0.35.

Turning to `CCc1nccn1CCCn1cnc2cn(C)nc2c1=O`, the “% Inhibition” value is -1% and the Z score is 0.1.

In the case of `CN(Cc1ncc[nH]1)C(=O)NC1(CC(C)(C)C)CC1`, the “% Inhibition” value is reported as -11% and the Z score was 1.08.

For the compound `Cc1cnc(CCNC(=O)c2cn(C)cn2)n1C1CCCCC1`, the “% Inhibition” value was 2% and the Z score is -0.23.

Regarding `CCC(=O)Nc1cn(-c2cccc(C(=O)NCc3ccncc3)c2)nc1C`, the “% Inhibition” value is on record as -2% and the Z score was found to be 0.32.

Turning to `O=C(CCCN1CCCC1)N1C[C@H]2CCC[C@@H](C2)C1`, the “% Inhibition” value is 0% and the Z score came out at 0.09.

Consider `O[C@@H]1COCCN(Cc2cc3c(cc2Cl)OCO3)C1`, for which the “% Inhibition” value stood at 6% and the Z score is listed as -0.98.

For `O=C(NCc1ccc(F)cc1)Nc1ccccc1-c1cc2ccccc2[nH]1`, the “% Inhibition” value is -3% and the Z score was 0.4.

Turning to `C[C@H](NC(=O)C1COc2ccccc2O1)C(=O)N1CCN(Cc2ccccc2)CC1` (stereo partly specified), the “% Inhibition” value was 0% and the Z score worked out at 0.05.

Turning to `Cc1c(S(=O)(=O)N2CCCC[C@H]2C(=O)O)oc2ccc(F)cc12`, the “% Inhibition” value is -1% and the Z score came to 0.11.

For the compound `Cn1cc(S(=O)(=O)Oc2ccc(C(C)(C)C)cc2)cc1C(N)=O`, the “% Inhibition” value is reported as -2% and the Z score was 0.37.

On to `C[C@H]1C(=O)N(C)C[C@@H](COc2ccccc2)N1C(=O)C1CCOCC1`, for which the “% Inhibition” value is listed as -7% and the Z score is given as 0.87.

For the compound `O=C(O)c1csc(NC(=O)c2cccc([C@H]3CCOC3)c2)c1`, the “% Inhibition” value is on record as -11% and the Z score was determined as 1.14.

Turning to `Cc1cc(N2CCN(Cc3cccc(C#N)c3)C[C@H](O)C2)nc(N)n1`, the “% Inhibition” value is listed as 21% and the Z score is -2.71.

`NC(=O)C(NC(=O)c1sc2sccc2c1Cl)C(N)=O`: the “% Inhibition” value was 22% and the Z score is -3.02.

Turning to `O=S(=O)(Nc1ccc(F)cn1)c1ccc(Br)o1`, the “% Inhibition” value is reported as 21% and the Z score is recorded as -2.09.

For the compound `O=C(Cn1cnc2c(cnn2CCO)c1=O)N1CCN(c2ccccc2)CC1`, the “% Inhibition” value was -9% and the Z score was 1.13.

`CN(Cc1cnccn1)C(=O)Nc1ccc2c(c1)CCCN2C`: the “% Inhibition” value is reported as -16% and the Z score was 2.21.

Turning to `CCCn1nccc1C(=O)N[C@H]1CCCn2ncnc21`, the “% Inhibition” value stood at 4% and the Z score is recorded as -0.68.

With `CC(C)(C)c1ncn(CC(=O)NCCC2CCCCC2)n1`, the “% Inhibition” value is listed as -6% and the Z score was determined as 0.76.

`CN(C)c1noc(-c2cccc3[nH]c(CO)nc23)n1`: the “% Inhibition” value was -11% and the Z score was 2.1.

As to `Cc1ccc(OC/C=C/Cn2ccnc2)c(C)c1`, the “% Inhibition” value was -6% and the Z score is recorded as 0.69.

Take `CCCC[C@H](CC)CNC(=O)c1ccccc1OC`: the “% Inhibition” value was -5% and the Z score was 0.6.

`Cn1cc(C(Nc2cccc(C#N)n2)[C@H]2C[C@H](O)C2)cn1` (stereo partly specified): the “% Inhibition” value is given as -21% and the Z score was 1.88.

In the case of `CC1(C)CN(C(=O)C2C3CCCC32)CC[S+]1[O-]` (stereo unspecified), the “% Inhibition” value was -14% and the Z score stood at 1.42.

Turning to `COc1ccc(CN2CC[C@@H](CO)N(C)c3cccnc3C2)cc1`, the “% Inhibition” value turned out to be 19% and the Z score is given as -2.21.

As for `Cn1ccnc1[C@H]1OCC[C@@H]1NC(=O)Nc1csc(-c2ccccn2)n1`, the “% Inhibition” value is -8% and the Z score amounted to 1.01.

Turning to `CN1CCC(NC(=O)c2cc(-c3ccccc3)nc3ncnn23)CC1`, the “% Inhibition” value was -4% and the Z score is on record as 0.47.

As for `Cc1cc(C(=O)Nc2sccc2C(=O)Nc2ccc(Cl)cc2)no1`, the “% Inhibition” value is -1% and the Z score is 0.15.

As for `Oc1cccc(CNc2ccc(CN3CCC(O)CC3)cc2)c1`, the “% Inhibition” value is -13% and the Z score worked out at 1.98.

For the compound `CC(C)c1nc2cc(CCC(=O)NC3CCCCC3)ccc2[nH]1`, the “% Inhibition” value is reported as -8% and the Z score is listed as 1.12.

Regarding `CCn1ccnc1CN1CCC2(CCC(=O)N(CCc3ccccc3)C2)CC1`, the “% Inhibition” value is -9% and the Z score amounted to 1.5.

For `O=C1O[C@]2(CCCN(S(=O)(=O)c3cccnc3)C2)c2ccccc21`, the “% Inhibition” value is recorded as -6% and the Z score is 0.89.

On to `FC(F)(F)CN1CC[C@H](c2nc(-c3cocn3)no2)C1`, for which the “% Inhibition” value is -4% and the Z score was 0.7.

For `C[C@H]1CN(C(=O)c2noc(-c3cccc(F)c3)n2)CCO1`, the “% Inhibition” value is -5% and the Z score is 0.64.
